Some of the results follow. Further columns of the screen follow, without active or inactive calls. The list favours compounds with an active or inconclusive main result.
assay: beta-lactam sensitization of Mtb H37Rv, H37Rv (AID 434955);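 further: growth measured after seven days incubation then overnight dye step; 0% = bacteria only wells and 100% = bacteria with antibiotic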; details: M. tuberculosis H37Rv growth with meropenem, percent inhibition; measured here: primary screen without meropenem; at 25 µM

| Compound | inhibition |
| --- | --- |
| Cc1ccc(C(=O)C(C)Oc2ccc3ccc(=O)oc3c2)cc1 (centres undefined) | 11.9% |
| CC1CCN(C(=O)CSc2nc(N)c(NC(=O)c3ccccc3)c(=O)[nH]2)CC1 | -0.02% |
| COC(=O)c1ccccc1OC(=O)c1cc2ccccc2oc1=O | 11.2% |
| CC1CC(C)CN(C(=O)CSc2nnc(-c3ccc(F)cc3)o2)C1 (centres undefined) | -3.25% |
| CC1CCc2nn(CC(=O)NCCCN3CCOCC3)cc2C1 (centres undefined) | 1.68% |
| CCN1CCN(Cc2cc(Br)cc(OC)c2O)CC1 | -1.27% |
| Cc1noc(/C=C/N(C)C)c1S(=O)(=O)N1CCCC(C(=O)NC(C)c2ccccc2)C1 (centres undefined) | 2.26% |
| CCOC(=O)N1CCN(C(=O)C2CCN(C(=O)c3ccc([N+](=O)[O-])cc3)CC2)CC1 | 2.98% |
| O=C(Cn1nc(C(F)(F)F)c2c1CCC2)N1CCN(c2ccccc2)CC1 | -0.41% |
| C=C(C)C(=O)O[C@H]1C/C(C)=C\C(=O)/C=C(\C)[C@H](O)[C@@H]2OC(=O)C(=C)[C@@H]21 | 13.5% |
| Cc1ccccc1N1CCN(C2CCCN(C(=O)COc3ccccc3)C2)CC1 (centres undefined) | -2% |
| O=C(c1cc(COc2ccc3c(c2)CCCC3)on1)N1CCCC1 | 10.8% |
| O=C(Nc1ccc2nc3n(c(=O)c2c1)CCCC3)c1cc([N+](=O)[O-])ccc1F | 12.5% |
| c1csc(C2Nc3ccccc3-c3nc4ccccc4n32)c1 (centres undefined) | 1.01% |
| CN1CCN(Cc2c(O)ccc3c(-c4ccccc4)cc(=O)oc23)CC1 | 1.89% |
| Cc1cccc(NC(=O)c2ccc(COc3ccccc3)o2)n1 | -8.48% |
| O=C(CN1C(=O)NC2(CCCC2)C1=O)Nc1cc(Cl)ccc1N1CCCC1 | 3.54% |
| CCN1C(=O)c2ccc(C(=O)NCc3ccco3)cc2C1=O | -2.29% |
| C=CCNc1nc(-c2ccccc2)nc(-n2ccnc2)n1 | 72.4% |
| Cc1cc(C)c(S(=O)(=O)Nc2cc(C)on2)c(C)c1 | -1.38% |
| COCCn1c(SCC(=O)N2CCC(C)CC2)nc2c([nH]c3ccccc32)c1=O | 2.35% |
| COc1cccc(CN2CCNC(=O)C2CC(=O)N(C)C2CCOCC2)c1OC (centres undefined) | -7.83% |
| CCCC1=C/C(=C/c2ccc(-c3ccccc3OC)o2)C(=O)O1 | 44.2% |

| Compound | inhibition |
| --- | --- |
| CCCC(=O)NC(c1ccco1)c1c(O)ccc2ccccc12 (centres undefined) | 7.41% |
| COc1ccc(-c2ccc(/C=C3/C(=N)N4C(C)=CSC4=NC3=O)o2)c([N+](=O)[O-])c1 | 1.03% |
| Cc1cc(C)c(C(=O)N2CCCC(N3CCN(c4ccc(F)cc4)CC3)C2)o1 (centres undefined) | -2.23% |
| CCOC(=O)c1c(NC(=S)NC(=O)c2ccc(Cn3cc(Cl)cn3)o2)sc2c1CCC(C)C2 (centres undefined) | 3.03% |
| O=S(=O)(c1ccc2c(c1)OCO2)N1CCN(c2nnnn2-c2ccccc2)CC1 | 1.21% |
| CCc1ccccc1NC(=O)c1cccs1 | -1.28% |
| CCCCn1c(N)c(N(CC(C)C)C(=O)C2CCN(S(=O)(=O)c3ccc(C)c(C)c3)CC2)c(=O)[nH]c1=O | 0.26% |
| Cc1cc(C(=O)Nc2ccc(Br)cc2F)n(-c2ccccc2)n1 | 48.4% |
| CON(c1nc(Cl)nc(N(C)C)n1)S(=O)(=O)c1ccc(C)cc1 | 2.86% |
| CCc1ccc(N2CC(C(=O)NC3CC3)CC2=O)cc1 (centres undefined) | -6.05% |
| O=C(COC(=O)c1ccco1)NCC1CCCO1 (centres undefined) | 0.04% |
| COc1cccc(CNc2nc3nc(C)cc(C)n3n2)c1 | 8.49% |
| Cc1ccc(S(=O)(=O)N(C)C)cc1NC(=O)CN1C(=O)NC2(CCCCCC2)C1=O | -4.78% |
| O=C(Nc1cccc(Br)c1)c1cc(S(=O)(=O)N2CCOCC2)cs1 | 1.33% |
| Cn1nccc1C(=O)N1CCCC(N2CCN(c3cccc(C(F)(F)F)c3)CC2)C1 (centres undefined) | -4.27% |
| COCc1cc(=O)n2[nH]c(SC)nc2n1 | -6.95% |
| O=C(COC(=O)c1ccc(Cl)nc1)NC(=O)c1ccccc1 | 14.8% |
| Cc1cc(Nc2ccc(C(C)C)cc2)n2ncnc2n1 | -4.6% |
| O=C(c1ccccc1)c1ccccc1C(=O)N1CCOCC1 | -4.5% |
| CCC(C)[C@H](NC(=O)C1CCN(C(=O)[C@H](Cc2ccccc2)NC(=O)OC(C)(C)C)CC1)C(=O)O (some centres undefined) | 1.92% |
| CCc1ccc(-c2cc(C)no2)cc1S(=O)(=O)N1CC(=O)Nc2ccccc21 | 1.78% |
| COCn1c(-c2ccc(OC)c(OC)c2)nc2ccccc21 | -4.94% |
| O=C(CCNS(=O)(=O)c1ccc(Br)s1)NC1CCCC1 | -4.5% |

| Compound | inhibition |
| --- | --- |
| CCOC(=O)N1CCN(c2nc3ccccn3c(=O)c2C=O)CC1 | -2.99% |
| COc1cccc(OCc2nc3c4cnn(-c5ccccc5)c4ncn3n2)c1 | 3.64% |
| O=C(CC(=O)NCc1ccc(Cl)cc1)NCc1ccccc1 | 3.81% |
| Cc1c(C#N)c2ccccc2n1CC(=O)N1CCc2ccccc2C1 | -4.91% |
| COc1ccc(/C=N/Nc2nc(-c3ccc(C)cc3)c(NC(C)=O)s2)cc1 | 45% |
| CCOC(=O)C1=C(C)N=c2s/c(=C\c3ccncc3)c(=O)n2C1c1ccc2c(c1)OCO2 (centres undefined) | -10% |
| Cc1ccc(S(=O)(=O)Nc2ccccc2C(=O)N2CCCC2)cc1 | -0.53% |
| COc1cc(CNc2ccc(N3CCN(C(C)=O)CC3)cc2)ccc1OCc1ccc(F)cc1 | -6.92% |
| CCn1c(=O)cc(SCC(=O)Nc2cccnc2)c2ccccc21 | 3.31% |
| CCc1nc(SCC(=O)Nc2ccc(Br)cn2)n[nH]1 | -4.42% |
| CCOC(=O)c1c(C(C#N)C#N)cc(C)nc1C | -8.64% |
| CCOC(=O)c1cnc2cc(-c3ccc(C(C)(C)C)cc3)nn2c1N | 49.6% |
| COc1cccc(/C=N/Nc2nc(N3CCCC3)nc(N3CCCC3)n2)c1O | 3.67% |
| CCCCN(C(=O)c1ccc(S(=O)(=O)N(C)C)cc1)c1nc2ccccc2s1 | -7.06% |
| Cc1ccccc1CSc1nnc(-c2ccncc2)n1C | -6.29% |
| Cc1cccc2c1-c1sc(C(=O)N3CCCCC3)cc1CO2 | 7.39% |
| O=C(CNC(=O)c1ccco1)NCC(=O)OCC(=O)c1ccc(Cl)c([N+](=O)[O-])c1 | 3.68% |
| CCCCCn1cc(C(=O)C(=O)N2CCOCC2)c2ccccc21 | 12.7% |
| CC(C)Oc1ccc(Cn2c(=O)oc3ccccc32)cc1 | 1.33% |
| CCOc1ccc(NC(=O)CSc2nc3ccccc3c(=O)n2CCCC(=O)N2CCCC2)cc1 | -2.68% |
| COc1ccc(NC(=O)CSc2nn3c(=O)c(C)nnc3s2)cc1 | 1.44% |
| COc1ccc(OC)c(Nc2nc(-c3cccs3)cs2)c1 | 39.5% |
| COc1ccc(C(=O)CSc2ccc(-c3ccc(C)cc3)nn2)cc1 | 3.01% |

— PubChem BioAssay AID434955 (Southern Research Specialized Biocontainment Screening …, 2010)
